# Source: the supplement of paper PMC3334620
# The full ranking holds about 33,000 sequences; the median of “E-score (-0.5 to 0.5)” is about -0.013, and the highest 2% start at about 0.3. This is one part of the list.
# Target: T1, Msn1 (UniProt P22148)
# T1 sequence: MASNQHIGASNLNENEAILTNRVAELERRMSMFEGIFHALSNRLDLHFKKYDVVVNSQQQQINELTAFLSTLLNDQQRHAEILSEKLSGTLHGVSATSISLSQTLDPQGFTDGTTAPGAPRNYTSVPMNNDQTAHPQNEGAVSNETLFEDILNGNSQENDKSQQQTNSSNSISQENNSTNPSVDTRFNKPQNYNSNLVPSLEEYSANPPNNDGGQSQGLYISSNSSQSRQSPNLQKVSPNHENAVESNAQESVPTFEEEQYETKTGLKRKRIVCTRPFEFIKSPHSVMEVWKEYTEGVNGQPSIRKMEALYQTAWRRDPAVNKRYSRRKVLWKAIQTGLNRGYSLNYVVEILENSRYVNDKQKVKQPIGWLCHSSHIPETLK
# Experiment: PBM E-score (8-mer binding enrichment) (E-score (-0.5 to 0.5)); higher = stronger / more preferred TF binding; most listed sequences are background and not binding sites
# Settings: protein concentration: 200 nM; construct: GST-full length
# Protocol: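 Universal 'all 10-mer' protein binding microarrays (Agilent AMADID 015681) probed with GST-tagged S. cerevisiae TFs (full-length or DBD) made by in vitro transcription/translation (PURExpress), about 100-200 nM. Bound TF was detected with fluorescent anti-GST. Each ungapped 8-mer (which stands for itself and its reverse complement) is scored by the PBM enrichment score (E-score), a modified Wilcoxon-Mann-Whitney statistic from -0.5 to +0.5, computed with the Universal PBM Analysis Suite. Scale: above 0.35 generally sequence-specific binding.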
row,Sequence,PBM E-score
1,CTAACGCC,0.0406
2,ATCAGTGG,-0.184
3,GTGGGATA,-0.0948
4,ACATTGGG,0.097
5,CCATGAGA,0.00391
6,GCTATGTA,-0.00603
7,AGGGTTAT,0.0362
8,AGTGCACA,-0.153
9,AATATGGC,-0.0707
10,AGCCTGTC,-0.0726
11,CAAAATGC,0.124
12,CTACGGAG,-0.141
13,GCCAGACC,-0.164
14,CGGGATAG,0.0061
15,AGGGCTTG,-0.0956
16,CAAGCTAC,-0.184
17,ATCGTTTA,0.141
18,AGCTGGAG,-0.251
19,ATGCGCCC,-0.0106
20,ATGAAGGG,-0.242
21,TGAATAAA,0.0805
22,GACAGTAA,0.00864
23,CGTTGGGA,0.0807
24,ACAACGAA,0.12
25,ACAATTCC,0.163

row,Sequence,PBM E-score
1,GCCCAGGC,-0.225
2,ACTGCAAT,-0.0168
3,CGCCGAAG,0.0653
4,ACCACTGG,0.138
5,CGACCACA,-0.135
6,AGCAGCAG,0.0717
7,ACTCGCGA,0.224
8,GACGCGCC,-0.00097
9,AACATAAT,0.231
10,ATTATGGC,0.00016
11,GTGGTATA,0.079
12,CAAAATGA,0.139
13,CCCCCTGA,-0.4
14,ACGAGCAA,-0.0242
15,CCTTATCC,-0.126
16,AGGGGGCA,-0.378
17,ATCTGTTA,0.183
18,CGATCCCA,-0.0985
19,AAGAAACT,0.0808
20,ACCATGAG,-0.147
21,CTATCGTA,0.0396
22,AGATCCTC,-0.125
23,CAATTTTC,0.0166
24,CAATGAAC,-0.0298
25,ACACCACG,-0.091

row,Sequence,PBM E-score
1,ATCTCAAC,0.0953
2,ACAGGGTG,-0.176
3,CCCTATTA,-0.0488
4,AGAGCGCG,0.0616
5,CAGGCCAA,-0.204
6,GAATCAGC,-0.0512
7,ATATTGGG,0.0534
8,CCAAAGCG,-0.0329
9,CATGTCAA,0.236
10,AGTTAACT,-0.007
11,AATGACCC,-0.145
12,CCCCTATA,-0.235
13,AATACGCG,0.0996
14,TATCATCA,0.0286
15,CATCGAAA,-0.0139
16,ACTCGATA,-0.055
17,AATGTCGG,0.33
18,ACAGAGCC,-0.0387
19,CCGTGTCG,0.00655
20,GGCGTTAA,-0.112
21,ACAGCGGT,-0.0473
22,GTCAACTA,0.0539
23,ATCACGGA,0.136
24,CTACGTCA,-0.117
25,CACGTTAG,-0.104

row,Sequence,PBM E-score
1,CACCAATC,-0.145
2,ACGAGTCT,-0.0682
3,CTGGCAGA,-0.0414
4,AGATCCCA,-0.103
5,AGACGCTC,0.0257
6,CTATCACC,-0.23
7,CTTCTTGA,0.0621
8,CTTTACAA,-0.147
9,TATGTCGA,0.289
10,CTCGTTAC,-0.0524
11,AAATACGT,0.0253
12,CTCTGCGA,0.0385
13,AACGAACG,0.0498
14,CTTGTCTA,0.324
15,AAGGCTCC,-0.319
16,CCGACCCC,-0.354
17,GGAGTCAA,-0.259
18,AGATTGTC,0.369
19,ACCAGAGA,-0.0229
20,GTTAACGA,0.0125
21,CAGCTGGA,0.0641
22,ACTGGACG,0.0533
23,GGCGAATA,-0.0359
24,GCACTAAA,0.132
25,AGTATTAT,0.15

row,Sequence,PBM E-score
1,AACTATGG,-0.144
2,GCTAGGCC,-0.11
3,AGAACTTC,-0.048
4,CTATTTGA,0.0663
5,AACTAGGA,0.154
6,CCCACCCA,-0.197
7,GAAGATAC,0.0257
8,TAATGTCA,0.259
9,AGGACAGG,0.28
10,CAAAAATG,0.185
11,AAAGGTTG,-0.101
12,CCTGACGC,-0.332
13,CATCTACC,-0.0491
14,ATAGTGCG,-0.109
15,AACACGGA,0.108
16,ACTAAGTA,0.0761
17,AGGTATGC,0.0977
18,AAGGGCGC,-0.0787
19,CCGGCCAC,-0.0999
20,TAAATAAA,0.273
21,CAGCGTTA,-0.131
22,CGGACTTA,0.215
23,GCAGGCGA,-0.00145
24,GACAGGTC,-0.0396
25,TCGGAGAA,-0.00799

row,Sequence,PBM E-score
1,ACTGGGGC,-0.212
2,CGACGAGC,-0.0652
3,CCTTAAGC,-0.104
4,AGGACATG,0.484
5,TCGAGCAA,-0.0738
6,GGCTGACC,-0.177
7,ATAGGCGA,0.044
8,CGTTAGTA,-0.0293
9,GATAACCA,-0.099
10,CGGTCTAC,-0.0144
11,AACAATCG,-0.0344
12,CGTCCGAG,0.0727
13,AACTAGTG,-0.014
14,AGACCTAG,-0.0169
15,AGTCGGGG,-0.184
16,CAATCCTA,-0.0742
17,ACAGTAAC,0.0766
18,CCCCTAGC,-0.414
19,GGCACGCA,-0.215
20,CACTGCTA,0.0351
21,ACGCGGGG,-0.0632
22,CCATAGCA,-0.196
23,ATAAAACA,0.115
24,CGCCACAC,-0.0716
25,ACCTCGTA,-0.061

row,Sequence,PBM E-score
1,TAGGGGCA,-0.254
2,GCTCTTCA,-0.0559
3,CTTTAAAC,0.0897
4,CGGATGAA,0.215
5,CATACTCA,0.0936
6,AGTCGGGA,0.0332
7,AACCCGGC,-0.114
8,GACTGCGC,-0.199
9,ATGTAGAG,-0.0694
10,ATCCATCG,-0.0899
11,CACAATGA,0.117
12,CAAAATTG,0.243
13,CCCTCTAG,-0.306
14,AGTCTGCA,-0.0414
15,ATCATATG,0.264
16,AAGTCTGG,0.0232
17,CAGCAGCA,-0.118
18,GATAACGA,0.0435
19,GACTCGCA,-0.107
20,ATGCTGCG,-0.0938
21,AATGGCGG,-0.00311
22,CTCAAACC,-0.00631
